# Measured values as given in the supplement of paper PMC9135407.
# Several values for one entry are separate records, joined by “and”; a condition that tells them apart may be missing. Equal values may be shown once. Where a name gives a salt, the structure may show the parent alone. Out of some 5,800 compounds screened, about 620 (11%) showed activity.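 How the source made its calls: active = score above a cut-off or among the top three wells of a plate; in these data no inactive exceeds 0.85.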 Only a part is listed here, and it is no random draw.
# Tested on: primary human hepatic stellate cells (donor 1)
# Experiment: scaled lipid accumulation score (0 = DMSO-like, 1 = nortriptyline-like); higher = stronger HSC inactivation (lipid re-accumulation), active = hit call of the paper
# Details: 48 h
# [1] = library stock concentration: 10 mM
# [2] = library stock concentration: 5.1 mM
# [3] = library stock concentration: 3.33 mM
# [4] = library stock concentration: 1 mM
# [5] = library stock concentration: 8 mM
compound,measurement,setting,value
CCCC(C(=O)OCCN(CC)CC)(c1ccccc1)c1ccccc1 [SKF-525A hydrochloride],scaled lipid accumulation score,[1],inactive: 0.355
CCCC(C(=O)OCCN(CC)CC)(c1ccccc1)c1ccccc1 [Proadifen hydrochloride],scaled lipid accumulation score,,inactive: 0.228
same,scaled lipid accumulation score,[2],inactive: 0.536
same,scaled lipid accumulation score,[1],inactive: 0.511
CN1CCN(C2=Nc3cc(Cl)ccc3Nc3ccccc32)CC1,scaled lipid accumulation score,[1],active: 0.854
C[C@H](CCC(=O)NCC(=O)O)[C@H]1CC[C@H]2[C@@H]3[C@H](O)C[C@@H]4C[C@H](O)CC[C@]4(C)[C@H]3C[C@H](O)[C@]12C [Glycocholic acid],scaled lipid accumulation score,,inactive: ≤ 0
Cc1cc(N2CCOCC2)cc2[nH]c(-c3c(NCC(O)c4cccc(Cl)c4)cc[nH]c3=O)nc12 (configuration not stated),scaled lipid accumulation score,[3],inactive: ≤ 0
same,scaled lipid accumulation score,[1],inactive: 0.182
Clc1ccc(COC(Cn2ccnc2)c2ccc(Cl)cc2Cl)cc1 (configuration not stated) [Econazole nitrate],scaled lipid accumulation score,,inactive: 0.345
same,scaled lipid accumulation score,[3],inactive: ≤ 0
same,scaled lipid accumulation score,library stock concentration: 4.5 mM,inactive: 0.208
same,scaled lipid accumulation score,[1],inactive: ≤ 0
Clc1ccc(COC(Cn2ccnc2)c2ccc(Cl)cc2Cl)cc1 (configuration not stated) [Econazole Nitrate],scaled lipid accumulation score,[1],inactive: 0.346
CCCCCCCC/C=C\CCCCCCCCCCCC(=O)O [13(Z)-Docosenoic Acid],scaled lipid accumulation score,[4],inactive: 0.016
NC(=O)NO [Hydroxyurea],scaled lipid accumulation score,[3],inactive: ≤ 0
same,scaled lipid accumulation score,[1],inactive: ≤ 0 and inactive: ≤ -0.07
same,scaled lipid accumulation score,library stock concentration: 26.3 mM,inactive: ≤ -0.001
CO/N=C1\CN(c2nc3c(cc2F)c(=O)c(C(=O)O)cn3C2CC2)CC1CN (configuration not stated) [Gemifloxacin mesylate],scaled lipid accumulation score,[1],inactive: ≤ -0.027
Cc1cc(C(=O)Nc2cc(Nc3ccc4c(/C=C/c5ccccn5)n[nH]c4c3)ccc2F)n(C)n1,scaled lipid accumulation score,[1],active: 1.61
CN(C)CCOc1ccc(-c2nc(-c3ccncc3)c(-c3ccc4c(c3)CCC4=NO)[nH]2)cc1,scaled lipid accumulation score,[3],active: 1.06
O=C(O)c1ccc(N2C(=O)C(=Cc3ccc(-c4ccc([N+](=O)[O-])cc4)o3)C=C2c2ccccc2)cc1,scaled lipid accumulation score,[3],inactive: 0.129
same,scaled lipid accumulation score,[1],inactive: 0.284
CCN(CC)C(=O)CCC/C=C\C[C@@H]1[C@@H](/C=C/[C@@H](O)CCc2ccccc2)[C@H](O)C[C@@H]1O [17-phenyl trinor Prostaglandin F2.alpha. diethyl amide],scaled lipid accumulation score,[4],inactive: ≤ 0
CC[C@]1(O)C[C@@H]2CN(CCc3c([nH]c4ccccc34)[C@@](C(=O)OC)(c3cc4c(cc3OC)N(C)[C@H]3[C@@](O)(C(=O)OC)[C@H](OC(C)=O)[C@]5(CC)C=CCN6CC[C@]43[C@@H]65)C2)C1 [Vinblastine],scaled lipid accumulation score,[3],inactive: 0.782
Cc1cc(CS(=O)(=O)c2ccccc2)cc(OCc2ccc(CN3CCC[C@@H]3CO)cc2)c1,scaled lipid accumulation score,[3],inactive: ≤ -0.009
CC(C)(C)C(O)/C=C/c1ccc2c(c1)OCO2 (configuration not stated) [Stiripentol],scaled lipid accumulation score,[1],inactive: ≤ 0
Nc1cc(N2CCCCC2)nc(N)[n+]1OS(=O)(=O)[O-] [Minoxidil sulfate],scaled lipid accumulation score,library stock concentration: 17.3 mM,inactive: ≤ -0.021
CC(/C=C/C(=O)NO)=C\[C@@H](C)C(=O)c1ccc(N(C)C)cc1 [Trichostatin A],scaled lipid accumulation score,[4],active: 0.793
CCCCC(CC)COC(=O)c1ccccc1O (configuration not stated) [Octisalate],scaled lipid accumulation score,[5],inactive: 0.01
"Cc1c(C)c2c(c(C)c1O)CC[C@@](C)(CCC[C@H](C)CCC[C@H](C)CCCC(C)C)O2 (racemic) [Tocopherol (R,S)]",scaled lipid accumulation score,,inactive: ≤ 0
CCN(CCCc1ccccc1)CCCc1ccccc1 [Alverine citrate salt],scaled lipid accumulation score,,inactive: 0.597
CCN(CCCc1ccccc1)CCCc1ccccc1 [Alverine citrate],scaled lipid accumulation score,[1],inactive: 0.417
CCN(CCCc1ccccc1)CCCc1ccccc1 [Alverine Citrate],scaled lipid accumulation score,[3],inactive: 0.189
same,scaled lipid accumulation score,[1],inactive: 0.661
CC(=O)[C@H]1CC[C@H]2[C@@H]3CC=C4C[C@@H](OC(=O)CCC(=O)O)CC[C@]4(C)[C@H]3CC[C@]12C,scaled lipid accumulation score,[1],inactive: ≤ 0
CC(CCc1ccc(O)cc1)NCC(O)c1ccc(O)cc1 (configuration not stated) [Ractopamine],scaled lipid accumulation score,library stock concentration: 6.6 mM,inactive: ≤ -0.006
CC(CCc1ccc(O)cc1)NCC(O)c1ccc(O)cc1 (configuration not stated),scaled lipid accumulation score,[1],inactive: ≤ 0
O=P(O)(O)C(O)(Cc1cccnc1)P(=O)(O)O [Risedronic acid],scaled lipid accumulation score,library stock concentration: 7.1 mM,inactive: 0.045
O=S(=O)(NO)c1ccccc1 [Piloty's Acid],scaled lipid accumulation score,[4],inactive: ≤ 0
O=C(Nc1ccc2[nH]ncc2c1)C1CCC1 [Rhodblock 6],scaled lipid accumulation score,[1],inactive: 0.092
N[C@@H](Cc1ccc(F)cc1)C(=O)O [p-Fluoro-L-phenylalanine],scaled lipid accumulation score,[1],inactive: ≤ -0.07
Nc1nccc2c1ncn2[C@@H]1O[C@H](CO)[C@@H](O)[C@H]1O [3-deazaadenosine],scaled lipid accumulation score,[1],inactive: ≤ -0.07
COc1cc2nc(N3CCN(C(=O)c4ccco4)CC3)nc(N)c2cc1OC [Prazocin],scaled lipid accumulation score,library stock concentration: 13 mM,active: 1.03
O=C(O)c1cc(O)c(O)c(O)c1 [Gallic acid],scaled lipid accumulation score,[1],inactive: ≤ 0
same,scaled lipid accumulation score,library stock concentration: 11.8 mM,inactive: ≤ -0.001
CCN(CC)C(=O)N1CCN(C)CC1 [Diethylcarbamazine citrate],scaled lipid accumulation score,,inactive: ≤ 0
same,scaled lipid accumulation score,[2],inactive: 0.024
same,scaled lipid accumulation score,[1],inactive: ≤ 0
Cc1c(O)cccc1C(=O)N[C@@H](CSc1ccccc1)[C@H](O)CN1C[C@H]2CCCC[C@H]2C[C@H]1C(=O)NC(C)(C)C [Nelfinavir Mesylate],scaled lipid accumulation score,library stock concentration: 3 mM,inactive: ≤ 0
same,scaled lipid accumulation score,[3],inactive: ≤ 0
same,scaled lipid accumulation score,[1],inactive: 0.835
Cc1c(O)cccc1C(=O)N[C@@H](CSc1ccccc1)[C@H](O)CN1C[C@H]2CCCC[C@H]2C[C@H]1C(=O)NC(C)(C)C,scaled lipid accumulation score,[1],inactive: 0.197
Cc1c(O)cccc1C(=O)N[C@@H](CSc1ccccc1)[C@H](O)CN1C[C@H]2CCCC[C@H]2C[C@H]1C(=O)NC(C)(C)C [Nelfinavir mesylate hydrate],scaled lipid accumulation score,[1],inactive: ≤ -0.07
CCSc1ccc2c(c1)N(CCCN1CCN(C)CC1)c1ccccc1S2 [Thiethylperazine malate],scaled lipid accumulation score,,inactive: 0.362
Nc1ccn([C@@H]2O[C@H](CO)[C@@H](O)[C@H]2O)c(=O)n1 [Cytidine],scaled lipid accumulation score,[3],inactive: ≤ 0
same,scaled lipid accumulation score,[1],inactive: 0.017
CC(C)CCC[C@@H](C)[C@H]1CC[C@H]2[C@@H]3CC=C4C[C@@H](O)CC[C@]4(C)[C@H]3CC[C@]12C [Cholesterol],scaled lipid accumulation score,library stock concentration: 5.2 mM,inactive: ≤ 0
CC(C)NCCCn1c(Sc2cc3c(cc2I)OCO3)nc2c(N)ncnc21,scaled lipid accumulation score,[3],inactive: 0.728
Cc1cccc(Nc2nc(-c3ccncc3)cs2)c1,scaled lipid accumulation score,[4],inactive: ≤ 0
CN(C)CCC(c1ccccc1)c1ccccn1 (configuration not stated) [Pheniramine maleate],scaled lipid accumulation score,,inactive: 0.036
same,scaled lipid accumulation score,[1],inactive: 0.061 and inactive: ≤ 0
CN(C)CCC(c1ccccc1)c1ccccn1 (configuration not stated) [Pheniramine Maleate],scaled lipid accumulation score,[3],inactive: ≤ 0
same,scaled lipid accumulation score,[1],inactive: 0.212
CCOc1ccc(Cc2cc([C@@H]3O[C@H](CO)[C@@H](O)[C@H](O)[C@H]3O)ccc2Cl)cc1 [Dapagliflozin],scaled lipid accumulation score,[3],inactive: ≤ 0
same,scaled lipid accumulation score,[1],inactive: ≤ 0
"CCCCC[C@H](O)/C=C/[C@@H]1[C@H]2C/C=C\CCCC(=O)O[C@H]2C[C@H]1O [Prostaglandin F2.alpha. 1,9-lactone]",scaled lipid accumulation score,[4],inactive: ≤ 0
CN(C)CCN1C(=O)c2cccc3cc(N)cc(c23)C1=O [Amonafide],scaled lipid accumulation score,[3],inactive: 0.468
same,scaled lipid accumulation score,[1],inactive: 0.186
COc1ccc2cc1Oc1ccc(cc1)C[C@H]1c3c(cc4c(c3Oc3cc5c(cc3OC)CCN(C)[C@@H]5C2)OCO4)CCN1C [Cepharanthine],scaled lipid accumulation score,[1],active: 0.944
O=c1cc(CN2CCOCC2)occ1OCCCCCSc1ccnc2cc(C(F)(F)F)ccc12,scaled lipid accumulation score,[3],inactive: ≤ -0.009
same,scaled lipid accumulation score,[1],inactive: 0.475
COc1ccc(/C=C2\COc3ccc(C)cc3C2=O)cc1O,scaled lipid accumulation score,[1],inactive: 0.275
"COC1=C(OC)C(=O)c2ccccc2C1=O [2,3-Dimethoxy-1,4-naphthoquinone]",scaled lipid accumulation score,[1],inactive: 0.634
O[C@@H]1CO[C@H]2[C@@H]1OC[C@@H]2O [Isosorbide],scaled lipid accumulation score,[3],inactive: ≤ 0
same,scaled lipid accumulation score,[1],inactive: ≤ -0.001
CC(=O)c1ccc2c(c1)N(CCCN1CCN(CCO)CC1)c1ccccc1S2,scaled lipid accumulation score,[1],inactive: 0.638
CS(=O)(=O)c1ccc(Cn2c3c(c4cc(F)cc(F)c42)CCCC3CC(=O)O)cc1 (configuration not stated),scaled lipid accumulation score,[1],inactive: ≤ -0.006
Cc1c(CC(C)(C)C(=O)O)n(Cc2ccc(Cl)cc2)c2ccc(F)cc12,scaled lipid accumulation score,[1],inactive: ≤ -0.006
O=C(O)c1cc(=O)c2c(OCC(O)COc3cccc4oc(C(=O)O)cc(=O)c34)cccc2o1 [Cromolyn disodium salt],scaled lipid accumulation score,,inactive: ≤ 0
O=C(O)c1cc(=O)c2c(OCC(O)COc3cccc4oc(C(=O)O)cc(=O)c34)cccc2o1 [Cromolyn Sodium],scaled lipid accumulation score,[1],inactive: 0.16
O=C(O)c1cc(=O)c2c(OCC(O)COc3cccc4oc(C(=O)O)cc(=O)c34)cccc2o1 [Cromolyn sodium],scaled lipid accumulation score,[1],inactive: 0.001
CCCCOc1ccc(CC(=O)NO)cc1 [Bufexamac],scaled lipid accumulation score,,inactive: ≤ 0
same,scaled lipid accumulation score,[3],inactive: ≤ 0
same,scaled lipid accumulation score,[1],inactive: ≤ 0
CC(=O)OC(C)C[N+](C)(C)C (stereo not drawn) [Acetyl-beta-methylcholine chloride],scaled lipid accumulation score,[1],inactive: ≤ 0
CC(=O)OC(C)C[N+](C)(C)C (configuration not stated) [Methacholine chloride],scaled lipid accumulation score,,inactive: ≤ 0
same,scaled lipid accumulation score,[1],inactive: ≤ 0
C=CCc1ccccc1OCC(O)CNC(C)C (configuration not stated) [Alprenolol HCl],scaled lipid accumulation score,[5],inactive: 0.203
C=CCc1ccccc1OCC(O)CNC(C)C (configuration not stated) [Alprenolol hydrochloride],scaled lipid accumulation score,,inactive: 0.634
same,scaled lipid accumulation score,[1],inactive: 0.5
Oc1c(Cl)cc(Cl)cc1Sc1cc(Cl)cc(Cl)c1O [Bithionol],scaled lipid accumulation score,[1],inactive: ≤ 0
Oc1c(Cl)cc(Cl)cc1Sc1cc(Cl)cc(Cl)c1O [Bithionate sodium],scaled lipid accumulation score,library stock concentration: 5 mM,inactive: 0.057
